Experimental data taken from PubChem BioAssay AID360 (National Center for Advancing Translational Sciences (NCATS), 2006).
The campaign covered roughly 48,000 compounds. About 550 (1.1%) were called active. About 4% were inconclusive and are not listed. No stated cut-off is given here; in the data, active means potency below about 15 µM; inconclusive means mostly about 16 µM to 33 µM; inactive means weaker than that. Some of the results follow.

molecular target: Lysosomal acid glucosylceramidase (Homo sapiens) (UniProt P04062); assay: Glucocerebrosidase; details: purified enzyme, resorufin glucoside fluorescence (screen aimed at inhibitors), 20 min;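 further: the screen sought inhibitors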
How it was run: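 Normal human glucocerebrosidase (0.2 nM final) was assayed with resorufin β-D-glucopyranoside (30 uM final) in 50mM citric acid/KH2PO4, 10mM sodium taurocholate, 0.01% tween-20, pH 5.9. Compounds were titrated; fluorescence (Ex 548, Em 600) read after 20 min at RT.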
Potency means the concentration at half of the fitted maximal effect.

Chain of UniProt P04062 (P04062 whole entry, looked up): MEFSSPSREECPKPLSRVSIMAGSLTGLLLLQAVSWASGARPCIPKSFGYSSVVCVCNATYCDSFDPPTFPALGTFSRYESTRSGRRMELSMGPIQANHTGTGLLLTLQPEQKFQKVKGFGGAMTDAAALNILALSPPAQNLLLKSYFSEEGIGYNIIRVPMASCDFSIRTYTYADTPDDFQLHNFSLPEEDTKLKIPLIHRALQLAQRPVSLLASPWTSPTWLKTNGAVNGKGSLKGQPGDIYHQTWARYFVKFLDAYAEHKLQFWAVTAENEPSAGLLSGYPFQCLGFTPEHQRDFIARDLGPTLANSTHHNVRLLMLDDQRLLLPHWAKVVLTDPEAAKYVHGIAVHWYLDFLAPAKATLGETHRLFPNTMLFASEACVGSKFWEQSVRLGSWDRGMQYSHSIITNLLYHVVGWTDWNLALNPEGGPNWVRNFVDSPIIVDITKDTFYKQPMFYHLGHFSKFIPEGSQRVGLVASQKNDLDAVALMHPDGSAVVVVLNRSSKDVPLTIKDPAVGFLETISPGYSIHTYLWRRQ

Potency, inactive:
CCCc1nnc(SCc2ccc(OC)cc2)n1N > 76.9 µM, O=S(=O)(NCC(c1cccnc1)N1CCOCC1)c1cccs1 (stereo unspecified) > 76.9 µM, CCOC(=O)C(CC(C)C)CP(=O)(O)CNC(=O)OCc1ccccc1 (stereo unspecified) > 76.9 µM, O=C1CCC/C1=c1\s/c(=C\c2cccnc2)c(=O)n1-c1ccccc1 > 76.9 µM, COc1ccc(-c2cc3ccccc3oc2=O)cc1NC(=O)c1ccc(Br)o1 > 76.9 µM, c1ccn2cc(CSc3nnc4ccccn34)nc2c1 > 76.9 µM, CCOc1ccc(C(C)=O)cc1CN1C(=O)NC2(CCCCC2C)C1=O (stereo unspecified) > 76.9 µM, Cc1cc(=O)c2c(O)c(O)ccc2o1 > 76.9 µM, CN(CCCNC(=O)c1ccc(N2CCCC2=O)cc1)c1ccccc1 > 76.9 µM, CCOCCn1c(CN2CCN(c3ccccc3)CC2)nc2c1c(=O)n(C)c(=O)n2C > 76.9 µM, CN(C(=O)c1ccc2c(=O)n3c(nc2c1)CCCCC3)c1ccccc1 > 76.9 µM, COCCCn1c(-c2ccccc2Cl)n[nH]c1=S > 76.9 µM, Cc1ccc(C(=O)Nc2ccc(Cl)cn2)cc1 > 76.9 µM, c1ccc(-c2nnnn2CCOCCn2nnnc2-c2ccccc2)cc1 > 76.9 µM, CCCN1C2CCCC1CC(NC(=O)NC1CCCCC1)C2 (stereo unspecified) > 76.9 µM, NCC12CC3CC(C1)CC(CN)(C3)C2 > 76.9 µM, CC1CCCN(C(=O)c2ccncc2)C1 (stereo unspecified) > 76.9 µM, CCOC(=O)N1CCN(C(=O)c2cc(C)c3c(C)nn(-c4ccccc4)c3n2)CC1 > 76.9 µM, COc1ccc(CCNC(=O)CN(c2ccc(C)cc2)S(=O)(=O)c2c(C)noc2C)cc1OC > 76.9 µM, Cc1cccc2nc(CSc3nncn3-c3ccccc3)cn12 > 76.9 µM, COCCN(C(=O)c1csnn1)C(C(=O)NC1CCCCC1)c1cccs1 (stereo unspecified) > 76.9 µM, CCOC(=O)c1c(NC(=O)CSc2nnc(Cc3csc(N)n3)n2C)sc(C)c1C > 76.9 µM, c1csc(-c2csc3nc(CN4CCOCC4)nc(NCc4ccc5c(c4)OCO5)c23)c1, CC(=O)Nc1ccc(N2CCN(Cc3ccccc3F)CC2)cc1 > 76.9 µM, CCSCCNC(=O)c1cc(-n2cnnc2)ccc1Cl > 76.9 µM, CCOc1ccc(-n2cnnn2)cc1S(=O)(=O)NCCc1ccc(OC)c(OC)c1 > 76.9 µM
